The text below walks through data of patent US6420131B1, “Use of fluorescein aryl ethers in high throughput cytochrome P450 inhibition assays” (Gentest Corporation, priority 1999, dated 2002).

Substrate in this data set: O=C(OCc1ccccc1)c1ccccc1-c1c2ccc(=O)cc-2oc2cc(OCc3ccccc3)ccc12
Briefly: Enzyme kinetics of substrate turnover by cDNA-expressed CYP3A4. The class given is biochemical, human. Particulars: other: CYP3A4, apparent Km. The protocol: The evaluation of compounds of Formula I were performed by measuring the kinetics of turnover using cDNA-expressed cytochromes P450 CYP3A4 and CYP2C8. Vmax and Km values are important for the optimization of the assay conditions and for setting the parameters for inhibition experiments.
Example Compound Ia. […] Final incubation volume was 0.2 ml. […] The activity was quantitated by comparing to a standard curve of fluorescein. Apparent Km and Vmax values were calculated by non-linear regression using SigmaPlot software.

As a reminder, the Km is the concentration of substrate that gives half-maximal velocity.

B1: human CYP3A4 (Homo sapiens) (protein)
chain: MALIPDLAMETWLLLAVSLVLLYLYGTHSHGLFKKLGIPGPTPLPFLGNILSYHKGFCMFDMECHKKYGKVWGFYDGQQPVLAITDPDMIKTVLVKECYSVFTNRRPFGPVGFMKSAISIAEDEEWKRLRSLLSPTFTSGKLKEMVPIIAQYGDVLVRNLRREAETGKPVTLKDVFGAYSMDVITSTSFGVNIDSLNNPQDPFVENTKKLLRFDFLDPFFLSITVFPFLIPILEVLNICVFPREVTNFLRKSVKRMKESRLEDTQKHRVDFLQLMIDSQNSKETESHKALSDLELVAQSIIFIFAGYETTSSVLSFIMYELATHPDVQQKLQEEIDAVLPNKAPPTYDTVLQMEYLDMVVNETLRLFPIAMRLERVCKKDVEINGMFIPKGVVVMIPSYALHRDPKYWTEPEKFLPERFSKKNKDNIDPYIYTPFGSGPRNCIGMRFALMNMKLALIRVLQNFSFKPCKETQIPLKLSLGGLLQPEKPVVLKVESRDGTVSGA
notes: purchased GENTEST Corporation P202; host or cells: baculovirus/insect cells (microsomes, SUPERSOMES)
Regarding B1, the Km was determined as 0.87 ± 0.12 µM.
